# A structure can be active in one record and inactive in another.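 Negative percent growth values reflect cell death: -40 means 40% of the cells present at the start died, and -100 means all died.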 A number of entries come with more than one value. This is not the full list of results. The source may hold further records. The calls were made as follows: active = growth percent below 10; inactive = the rest. These are repeated runs of one drug, at the concentration stated with the values; each value is one run. Additions like (4×) count equal records among those shown.
# Test system: SN12C renal
# Assay: NCI-60 one-dose screen, 48 h (100 = growth as untreated, 0 = no growth, -100 = all killed)
smiles,measurement,setting,value
COc1cccc2c1C(=O)c1c(O)c3c(c(O)c1C2=O)C[C@@](O)(C(=O)CO)C[C@@H]3OC1CC(N)C(O)C(C)O1 (stereo not given in full),growth,"0.25 µM, runs of 2012","inactive: 26.2, 15.7, 28.3, 21.2, 24.2, 34.7, 41.2, 25.8 (2×), 27.1, 24.7, 21.3, 24.1, 28.7, 25.9, 16.4, 29.4, 23.8, 41.8, 35, 31.1 (2×), 29.5 (3×), 27.9, 28.4, 27.5, 27.7, 32.4, 29.8, 25.2 (2×), 18.8, 33.3, 28.5, 28 (2×), 25.3 (2×), 40.2, 36.2, 34.5, 41.7, 47.3, 39.7, 43.6, 46.4, 44.2, 38.3, 40.9, 38.2, 42.4, 47.6, 25.4, 25, 22.2, 26.8, 26.9, 22.6, 19, 21.4, 20.7%"
same,growth,"0.25 µM, runs of 2013","inactive: 20.4 (2×), 22, 24.3 (2×), 23.7, 40.3, 32.9 (2×), 31.1, 29.9, 30.5, 28.5 (2×), 34.8, 33.5, 40.2, 28.6, 34.1, 35.6, 24.7 (2×), 33.2, 31.5, 27, 32.8, 27.5, 24.1, 26.2 (2×), 25.8, 27.7, 23.3, 32.5, 29.4, 28.2, 28.4 (2×), 25.3, 24.9, 30.2, 36.9, 29.6, 29.2, 39, 37.1, 20.7, 23.9, 22.1 (2×), 26.6, 30.1, 19, 41, 18.8, 28.1, 12.2, 21, 20.3, 26.1, 19.2, 10.1, 22.7% and active: -23.5, 7.88, 5.67, 2.31, 9.46%"
same,growth,"0.25 µM, runs of 2014","inactive: 34.4, 22.1 (2×), 22.2 (2×), 11.8, 12.2, 12.8, 17.5 (2×), 19.4, 19.3, 14.5 (2×), 10.2, 20.4 (2×), 25.3, 21.5 (2×), 20.7, 18.9 (2×), 18.2, 20.8, 14.7, 27.7, 28.6, 24.1, 21.4, 19.5, 14.1, 15.6, 10.1 (2×), 14.9 (2×), 18.7, 11.6, 15.8, 20.1, 20.6, 22.4, 18.6 (2×), 36.3, 26, 10.7, 12.6, 16.5, 14.2, 22.6, 10.5, 13.4, 15, 16, 25.9, 22.7% and active: 6.18, 5.65, 9.58, -11.8, -13.9, -0.933, 3.26, 9.93, 7.84, 0.962, 9.07%"
same,growth,"0.25 µM, runs of 2015","inactive: 31.2, 12.4, 14.2, 14.1 (2×), 16 (2×), 14.3, 10.6, 23.8, 23.7, 14, 15.5, 24.7, 18.1, 19.7 (3×), 20.9, 20.3, 14.5 (2×), 19.2, 32.5, 37.3, 21.2, 17 (2×), 15, 17.2 (2×), 18.8 (4×), 18.4, 22.8 (3×), 18.7, 16.8, 16.5, 18.6, 11.9, 16.3, 34.8, 29.5, 27.5, 10.8 (2×), 13.6, 11.5 (2×), 21.6, 36.8, 30.6, 21.7, 22.1, 30.7, 15.6, 16.4, 21, 27.4, 28.1, 31.5% and active: 5.4, 7.73, 9.01, 4.01%"
same,growth,"0.25 µM, runs of 2016","inactive: 14, 37.4, 24.9 (2×), 21 (2×), 24.8, 23.8, 27.3 (2×), 23.4, 25.5, 18.9 (2×), 15.8 (2×), 15.5, 22.4, 12.1, 19.9 (2×), 23, 18.4 (3×), 15.7, 22.3, 20.7 (2×), 14.9, 18.2, 18.8, 15, 19.2, 17, 18, 20.1 (2×), 20.9 (2×), 20.4, 21.6 (2×), 22.2 (2×), 20.8 (2×), 18.5, 19 (2×), 30.7, 19.4, 22.5, 21.3 (2×), 21.5, 23.3, 25.4, 24.2, 26.6, 28.4, 26.2, 27.1, 27, 26.7, 26.8, 19.3, 25.9, 20.5%"
same,growth,"0.25 µM, runs of 2017","inactive: 21.7, 27.4, 18.6 (3×), 19.7 (2×), 14.1 (2×), 13.5 (2×), 14 (3×), 17.9 (2×), 15.5 (3×), 17 (3×), 16.4, 15.6, 16.3 (3×), 19, 18.8, 13.7 (2×), 12.3, 12, 14.4 (2×), 18.5 (2×), 17.5, 14.7, 18.4 (2×), 20.8 (2×), 15.8, 18 (2×), 13.9, 13.8 (3×), 16.5 (2×), 18.2, 20.7, 22.6, 20.1, 23, 15.7, 16, 19.5, 15.3, 11.6, 12.8, 12.5, 14.8%"
same,growth,"0.25 µM, runs of 2018","inactive: 15.7, 20.5, 13.1 (2×), 21, 18.8 (2×), 19, 18.5 (2×), 19.5, 16.5, 23.2, 18.6 (2×), 21.5 (3×), 12, 17.4, 15.1 (2×), 13.8, 17.2, 16.4, 17.9, 24.9, 18.2, 16.8, 19.4, 18, 19.2, 20.3 (2×), 18.7 (2×), 17.5, 15.3, 20.7, 16.3%"
same,growth,"0.25 µM, runs of 2019","inactive: 13.5 (2×), 16.3 (2×), 10.3, 10.6, 14.9, 15.7 (2×), 19.3, 18.6, 16.7, 20.8 (2×), 21.6, 13.8, 12.9 (2×), 13.7, 12.8, 17, 15.6, 17.9 (2×), 17.5, 20.3, 17.4, 15, 17.2, 15.8 (2×), 16.8, 14.1 (2×), 11.9, 10.8, 14.3, 13.9, 26, 18% and active: 7.75, 9.09, 9.93, 9.22%"
same,growth,"0.25 µM, runs of 2020","active: 8.02% and inactive: 10.7, 11.8 (2×), 11.1, 22.4, 18.6, 16.7, 14.1, 18.8, 20.7, 20.1, 28.1, 23.9, 19.5 (2×), 15.4, 21.4, 16.8%"
same,growth,"0.25 µM, runs of 2021","inactive: 27, 46.4, 29.5, 22.5, 23.2, 19 (2×), 16.4, 22.6 (2×), 16.5, 15.8, 16 (2×), 18.6 (2×), 18.1 (2×), 20.6, 18.9 (2×), 20.4, 18.5, 17.2, 14.2, 14.9, 14.8, 12.5, 17.9, 14.5, 15.7, 15.5, 16.3, 23, 34.1, 31.3, 13.1, 10.8, 15.1 (2×), 13.5, 14, 21.4, 11.3% and active: 9.13%, 2.48%, 3.68%"
same,growth,"0.25 µM, runs of 2022","active: 0.258, -2.5, 9.23, -7, 0.787, 9.41, 8.29, 7.85% and inactive: 11.1, 12.4 (2×), 14.1, 14.8, 20.6, 10.5, 13.9, 12.2, 43.1, 51.6, 15, 43.8, 69.8, 12.1, 15.8, 16.3, 15.7, 13.3%"
same,growth,"25 µM, runs of 1991","active: -17, -18.6, -14.8, -12.7, -20.2, -10.7, -26.5, -20.5, -33.1, 4.19, -4.12, -25.8, -26.4, -24.2, -39.9, -26.8, -21%"
same,growth,"25 µM, runs of 1992","active: -20.6, -5.39, -15.1, -31.1, -8.22, -13.4, -5.47, -25.4, -47.3, -18.5, -18.7, -21.1 (4×), -32.3, -19.7, -12.7, -29, -12.2, -17.5, 4.37, -23.8 (2×), -43.6, -24.8, -24.4 (2×), -61.1, -27.7, -30.8, 2.43, -31.8, 2.73, -36.2 (2×), -20.9, -32.6, -14.5, -40.8, -36.9 (2×), -11.1, -27.9, 1.86, -11.7, 4.68, -32, -19.2, -28.1, -25.9, -36.8, -46.5, -54.1, -56.9, 2.8, -26.9 (2×), -45.8, 6.34, -3.93, -6.46, -49.2, -54.4, -45.7, -34.4, -10.5, -11.8, -7.57, 4.81, -8.77, 2.12, -2.35, -20.4, -13.7, -23.7, -68.6, -36.3, -3.25, -39.8, -22.2, -23.3, -29.5 (2×), 5.97, 6.32, -9.52, -48.8, -18.1, -42.2, -31.7, -46.6, -14.4, 3.52, -50.1, -27.1, -43.9, -31.3, -13.5, -44.9, -30.6, -38.5, -15.8, -54.8, -26, -42.1, -41, -20.7, -24, -34.8, -32.2% and inactive: 11.1, 12.6, 22.8, 10.8%"
same,growth,"25 µM, runs of 1993","active: -27, 2.68, -22.7, -45.9, -47.2 (2×), -61.6, -15.3, 1.52, -35.3, -56.3, -26.7, -24.5, -42.4, 0.94, -22.9, -30.1, -21, -52.1, -35.4, -29.3, -37.8, -23.6, -31.5, -35.6 (2×), -49, -18.2, 0.808, -21.8, -60, -13.7, -29.7, -14.1, -49.1, -38.8, 5.56, -23.8, -37, -38.5, 3.25, -27.2, -59.1, -12.3, -39.8, -44.6%"
same,growth,"25 µM, runs of 1994","active: 6.45, -2.63, -29.9, -14.4, -52.7, -42.4, -13, -45.6, 3.99, -0.4, -40.5, -29.8, -14.8, -27.6, -22.1, 2.4, -40.8, -28.2, -45.8, -26, -39.6, -46.1, -30.3, 3.52, -42.7, -29.5, -22.2, -7.96, -61.6, -16.5% and inactive: 103%"

# — PubChem BioAssay (NCI)
